Experimental data from the RNAGym collection of RNA variant scans (doi:10.1093/nar/gkz1192).
The source gives no read counts; variants with many changes may rest on few reads.

B1: CPEB3 Ribozyme (parent)
chain: UAACAGGGGGCCACAGCAGAAGCGUUCACGUCGCAGCCCCUGUCAGAUUCUGGUGAAUCUGCGAAUUCUGCUGUAUAUCUC

Variants of: B1
Assay: self-cleavage, relative activity (ratio to wild type); higher = more cleavage; in vitro, sequencing
Method in brief: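 Libraries of CPEB3 self-cleaving ribozyme mutants came from rounds of error-prone PCR and carried barcodes, which DNA sequencing matched to variants. In vitro transcription used T7 RNA polymerase at 37°C for 5 hours, with a further 15 min in DNase I before EDTA stopped the reaction; the ribozymes cleaved during both steps. The RNA was reverse transcribed with template switching and sequenced on Illumina. Relative activity is the cleaved/total read fraction of a variant divided by that of the unmutated ribozyme, averaged over three batches with at least 5 reads.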

| Variant | self-cleavage |
| --- | --- |
| UAACGGGGGGCCACAGCAGAAGCGUUCACGUCACAGCCCCUGUCAGAUUCUGGUGAAUCUGCGAAUUCCGCCGUAUAUCUC [A5G G33A U69C U72C] | 0.26 |
| UAACGGGGGGCCACAGCAGAAGCGUUCACGUCGCAGCCCCUUUCAGAUUAUGGUGAAUCUGCGAAUUCUGCUGUAUAUCUC [A5G G42U C50A] | 0.34 |
| UAACGGGGGGCCACAGCAAAAGCGUACACGUCGCAGCCCCUGUCUGAUUCCGGUGAAUCUGCGAAUUCUGCUGUAUAUCUC [A5G G19A U26A A45U U51C] | 0.07 |
| UAACGGGGGGCCACAGCAGAAGCGUUCACGUCGCAGCCCCUGUCAGAUUCUGGUGAAUCUGCAAAUACUGCGGUAUAUCUC [A5G G63A U67A U72G] | 0.2 |
| UAACGGGGGGCCACAGCAGAAGCGUUCACAUCGCAGCCCCUGUCAGAUUCAGGUGAAUCUGCGAAUUCUGCUGUAUAUCUC [A5G G30A U51A] | 0.31 |
| UAACGGGGGGCCACAGCAGAAGCGAUCACGUCGCGGCCCCCGUCAGACUCUGGUGAAUCUGCGAUUUCUGCUGUAUAUCUC [A5G U25A A35G U41C U48C A65U] | 0.04 |
| UAACGGGGGGCCACAGCAGAAGCGUUCACGUCGCAGCCCCUGUCAGAUUCUGGUGAAUCUGCGAAUUCUCCUGCAUACCUC [A5G G70C U74C U78C] | 0.18 |
| UAACGGGGGGCCACAGCAGAAGCGUUCACGUCGCAGCCCCUGUCAGAUUCUAGUGAAUCCGCGAAUUCUGCUGUAUAUCUC [A5G G52A U60C] | 0.45 |
| UAACGGGGGGCCACAGCAGAAACGUUCACGUCGCAGCCCCUGUCAGAUUCUGGUGAAUCUGCGGAUUCUGCUGUAUAUCUC [A5G G22A A64G] | 0.18 |
| UAACGGGGGGCCACAGCAGAAGCGUUCACGUCGCAGCCCCUGUCAGAUUCUUGUGAUUCUGCGAAUUCUGCUGUAUAUCUC [A5G G52U A57U] | 0.5 |
| UAACGGGGGGCCACAGCAGAAGCAAUCACGUCGCAGCCCCUGUCAGAUCCUGGUGAAUCUGCGAAUUCUGCUGUAUAUCUC [A5G G24A U25A U49C] | 0.41 |
| UAACGGGGGGCCACAGCAGAAGCGUUCACGUCACAGCCCCUGUCAGAUUCUGGUGAAUCUGCGUAUUCUGCUGUAUAUCUC [A5G G33A A64U] | 0.11 |
| UAACGGGGGGCCACAGCAGAAUCGUUCACGUCGCAGCCCCUGUCAGUUUCUGGUGAAUCUGCGGAUUCUGCUGCAUAUCUC [A5G G22U A47U A64G U74C] | 0.02 |
| UAACGGGGGGCCACAGCAGAAGCGUUCACACCGCAGCCCCUGUCAGAUUCUGGUGAAUCUGCGUAUUCUGCUGUAUAUCUC [A5G G30A U31C A64U] | 0.22 |
| UAACGGGGGGCCACAGCAGAAGCAUUCACGUCGCAGCCCCAGUCAGAUUCUGGUGAAUCUGCGAAUUCUGCUGCAUAUCUC [A5G G24A U41A U74C] | 0.37 |
| UAACGGGGGGCCACAGCAGAAGCGUUCACGUCGCAGCCCCUGUCAGAUUCUGGUGAAUCUGCUAAUUCUGCCGUAUAUCUC [A5G G63U U72C] | 0.92 |
| UAACGGGGGGCCACAGCAGAAGCGUUCACGUCGCAGCCCCUGUCAGAUUCUGGUGAAUCUGCCAAUUCUGCUGUAUAUCCC [A5G G63C U80C] | 0.71 |

| Variant | self-cleavage |
| --- | --- |
| UAACGGGGGGCCACAGCAGAAGCGUUCACGUCGCAGCCCCUGUCAAAUUCUGGCGAAUCUGCGAAUUCUGCUGUAUAACGC [A5G G46A U54C U78A U80G] | 0.11 |
| UAACGGGGGGCCACAGCAGAAGCUUUCACGUCGCAGCCCCUGUCUGAUUCUGGUGAAUCGGCGAAUUCAGCUGGAUAUCUC [A5G G24U A45U U60G U69A U74G] | 0.08 |
| UAACGGGGGGCCACAGCAGAAGCGUUCACAUCGCAGCCCCUGUCAGAUUCUGGUGAAUCUGCGUAUCCUGCGGUAUAUCUC [A5G G30A A64U U67C U72G] | 0.15 |
| UAACGGGGGGCCACAGCAGAAGCGUUCACGUCGCAGCCCCUGUCAGAUUCUAGUGAAACUGCGAAUUCUGCUGUAUAUCUC [A5G G52A U58A] | 0.43 |
| UAACGGGGGGCCACAGCAGAAGCGUUCACUUCGCAGCCCCAGUCAGACUCUGGUGAAUCUGCGAAUUCUGCUAUAUAUCUC [A5G G30U U41A U48C G73A] | 0.33 |
| UAACGGGGGGCCACAGCAGAAGCAUUCACGUCGCAGCCCCCGUCAGAUUCUGGUGAGUCUGCGAAUUCUACUGUAUAUCCC [A5G G24A U41C A57G G70A U80C] | 0.11 |
| UAACGGGGGGCCACAGCAGAAGCGUUCACGUCGCAGCCCCUGUCAGAUUCUGAUGAUUCUGCGAAUUCUGCUGCAUAUCUC [A5G G53A A57U U74C] | 1.04 |
| UAACGGGGGGCCACAGCAGAAGCAUUCACGUCGCAGCCCCUGUCAGAUUCUGGUGAAACUGCGAAUUCUGCUGUAUAUCUC [A5G G24A U58A] | 0.31 |
| UAACGGGGGGCCACAGCAGAAGCGUUCACUUCGCAGACCCUGUCAGAUUCUGGUGAAUCUGCGAAUUCUGUUGUAUAUCUC [A5G G30U C37A C71U] | 0.08 |
| UAACGGGGGGCCACAGCAGAAGCGUUCACGUCGCAGCCCCUGUCAGAUUCUGGUGAAUCUGCGAAUUCUCCUGUAUACCUC [A5G G70C U78C] | 0.19 |
| UAACGGGGGGCCACAGCAGAAGCGUUCACGUCUCAGCCCCCGUCAGAUUCUGGUGAAUCUGCGGAUUCUGCUGUAUAUCUC [A5G G33U U41C A64G] | 0.1 |
| UAACGGGGGGCCACAUCAGGAGCGUUCACGUCGCAGCCCCUGUCAGAUUCUGGUGAAUCUGUGAAUUCUGCCGUAUGUCUC [A5G G16U A20G C62U U72C A77G] | 0 |
| UAACGGGGGGCCACAGCAGAAGCAUUGACGUCGCAGCCCCUGUCAGAUUCUGGUGAGUCUGCGAAUUCCGCUGUAUAUCUC [A5G G24A C27G A57G U69C] | 0.08 |
| UAACGGGGGGCCACAGCAGAAGCGUUCACGUCGCAUCCCCUGUCAGGUUCUGGUGGAUCUGCGCAUUCUGCUGUAUAUCAC [A5G G36U A47G A56G A64C U80A] | 0.1 |
| UAACGGGGGGCCACAGCAUAAGCGUUCACGUCGCAGCCCCUGUCAGACUCUGGUGAAUCUGCGAAUUCUGCAGUAUAUCUC [A5G G19U U48C U72A] | 0.15 |
| UAACGGGGGGCCACAGCAGAAGCUUUCACGUCGCGGCCCCUAUCAGAUUCUGGUGAAUCUGCGAAUUCUGCUGUGUAUCUC [A5G G24U A35G G42A A75G] | 0.08 |
| UAACGGGGGGCCACAGCAGAAGCGUUCACGUCGCAGCCCCUGUCAGAUUCUGGUGAAUCUGCAAAUUCUGCUGCAUAUCUC [A5G G63A U74C] | 0.92 |
